According to the supplement of paper PMC3334620:
The full ranking holds about 33,000 sequences; the median of “E-score (-0.5 to 0.5)” is about -0.013, and the highest 2% start at about 0.3. Some of the results follow.

What follows are sequences tested against T1, Msn1 (UniProt P22148) (assay: PBM E-score (8-mer binding enrichment) (E-score (-0.5 to 0.5)); higher = stronger / more preferred TF binding; most listed sequences are background and not binding sites). Conditions: protein concentration: 200 nM; construct: GST-full length.
T1 sequence: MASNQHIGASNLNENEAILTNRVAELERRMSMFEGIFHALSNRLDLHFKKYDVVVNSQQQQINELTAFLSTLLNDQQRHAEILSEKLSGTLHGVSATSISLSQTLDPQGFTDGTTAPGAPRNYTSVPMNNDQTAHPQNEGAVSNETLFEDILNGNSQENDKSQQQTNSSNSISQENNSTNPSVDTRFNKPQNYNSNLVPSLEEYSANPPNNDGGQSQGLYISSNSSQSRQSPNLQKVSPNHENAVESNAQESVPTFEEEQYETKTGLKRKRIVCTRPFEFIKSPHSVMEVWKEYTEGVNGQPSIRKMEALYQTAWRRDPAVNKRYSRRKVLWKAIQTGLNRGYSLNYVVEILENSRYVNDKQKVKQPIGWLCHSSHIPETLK
In short: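 Yeast transcription factors, full-length or as DNA-binding domains, were expressed with a GST tag using PURExpress in vitro transcription/translation. At about 100-200 nM they were applied to universal all-10-mer Agilent arrays, double-stranded by primer extension on fresh or once-stripped slides. Fluorescent anti-GST detected bound protein, and masliner normalised the scans. E-scores for ungapped eight-base words, pooled with reverse complements, came from the Universal PBM Analysis Suite.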

Point of comparison: AGCCTTCC, “PBM E-score” value -0.323. Against it:
- CAATGACG — higher, -0.12
- AGGCCTTA — higher, -0.113
- ATGTAAGC — higher, 0.0574
- CCTAAAGA — higher, -0.137
- ACGAACAC — higher, 0.067
- AGTGGCTA — higher, -0.146
- GAGATTCA — higher, 0.0423
- TGGAAACA — higher, -0.0372
- GTAATCGA — higher, -0.0358
- ACACGTTG — higher, 0.0399
- ACATCCCC — higher, -0.06
- AGAAACGA — higher, 0.0057
- ATGCCCCG — higher, -0.233
- CCCCCAAA — higher, -0.139
- CCTCTGAG — higher, -0.319
- TACCGCAA — higher, 0.127
- ACGGTGAG — higher, -0.0715
- CCATGGTA — higher, -0.0291
- CATCCTGA — higher, -0.0354
- GAGATCGC — higher, -0.0355
- GACCTGAC — higher, -0.119
- ACAGTGAA — higher, 0.122
- AGAGGGCG — higher, -0.186
- GTAGGAGA — higher, -0.204
- CCCAGTAG — higher, -0.136
- GGCATAAA — higher, 0.0749
- AAAGACAG — higher, 0.193
- GAGGCCCA — lower, -0.379
- AGCCCCTA — higher, -0.229
- TGAACTAA — higher, -0.00251
- AATGTACC — higher, 0.311
- CCTACTCA — higher, -0.133
- CGTTTCCC — higher, -0.125
- CTCGAGAG — higher, -0.0394
- GGATAACC — higher, -0.227
- AAGTTATC — higher, 0.141
- CTCCGTAA — higher, -0.17
- CGCACAGA — higher, 0.042
- CGCGACAG — higher, -0.00106
- CCCATCTC — higher, -0.269
- AAGCGGAG — higher, -0.106
- GCTAAGAC — higher, 0.101
- CTGTATCC — higher, -0.00014
- ATAAACGC — higher, -0.0374
- CCGTTGGC — higher, -0.117
- CAAGCTCG — higher, 0.107
- ATACCCTA — higher, 0.0956
- CGTTGCAA — higher, 0.109
- AATCTCTA — higher, -0.0142
- CACCGCCG — higher, -0.207
- CAATATGA — higher, 0.0187
- AGTAGACC — higher, -0.0365
- CTGCCTGC — higher, -0.21
- CACCCCTA — higher, -0.238
- GCTATAGA — higher, -0.142
- CGGACCTC — higher, 0.0121
- CCGGAGTC — higher, -0.161
- CGCTTGGC — higher, -0.234
- CGAGACTA — higher, 0.21
- AGTTTAAC — higher, -0.121
- GATGCGGC — higher, -0.0887
- GCAGGGGA — lower, -0.349
- CGGAACGC — higher, 0.0192
- AGCCTGGC — higher, -0.181
- GTAGCCCA — higher, -0.121
- GGGAGTAA — higher, 0.0327
- CTATTCAA — higher, 0.0406
- AGGGGTAC — higher, -0.0838
- GTGACACA — higher, 0.286
- ACCGGGAA — higher, 0.093
- AGCACGCG — higher, -0.00682
- ACTCATTG — higher, -0.207
- AGCTTGGC — higher, 0.0439
- AGCTCCGA — higher, 0.117
- CGGGCCCG — higher, -0.0103
- CCGCTAAG — higher, 0.0391
- AGTAGATG — higher, -0.0118
- CAGGCCAC — higher, -0.226
- CAGACGCG — higher, -0.0795
- GCCTTTGA — higher, 0.0544
- ACTTAGGA — higher, -0.00431
- GTAGTTAA — higher, -0.0573
- GGGGCCAA — higher, -0.214
- AGAGCTGG — higher, -0.017
- GGAGCCCA — higher, -0.274
- GACTGTAA — higher, 0.0195
- ATCGGTTC — higher, 0.0707
- TACGGCTA — higher, -0.145
- CAGATGAG — higher, -0.0027
- AACGGCTT — higher, -0.151
- GCAGGTGA — higher, -0.134
- CTCATGTC — higher, 0.27
- AGCCATGG — higher, -0.146
- TAAACCGA — higher, 0.054
- CGTGGGGA — higher, 0.0354
- AGGGCCAT — higher, -0.246
- GTTCGTCA — higher, -0.192
- AGCCCTGC — higher, -0.252
- CTAGGGCC — higher, -0.0781
- CCGATCAC — higher, 0.0887
- AGGGGGAC — higher, -0.305
- ACCGCTTC — higher, -0.244
- CCAGGTGA — higher, -0.113
- ATGGTATG — higher, -0.0931
- CCAAATAA — higher, 0.0707
- GTATCTTA — higher, 0.17
- AAATCAAG — higher, 0.0727
- ACATGACA — higher, 0.297
- CCAATCTC — higher, 0.05
- ACCTAACC — higher, 0.00159
- TCGGCAGA — higher, 0.0685
- ACCCAACC — higher, -0.107
- AAGAACTT — higher, 0.198
- ATAATGAT — higher, -0.0727
- CTTTCTCA — higher, 0.165
- GAAAAAAC — higher, 0.223
- CTTGATGC — higher, -0.174
- AGATGGAG — higher, 0.0113
- AGGTGCCA — higher, -0.0792
- GAGTAGGC — higher, -0.169
- CACCTGGC — higher, -0.188
- ATACGGTA — higher, -0.0643
- ATACCACA — higher, 0.0813
- GCGGTAGC — higher, 0.041
- CGAGACCC — higher, -0.0936
- CGTGTTCC — higher, -0.0397
- CTTCGTTC — higher, -0.0446
- GCGTCTCC — higher, -0.0593
- GAGACGAA — higher, -0.0182
- ATTCTCTC — higher, 0.088
- ATCATCAA — higher, 0.0569
- TCGATGAA — higher, -0.0265
- CGCTCGTA — higher, -0.227
- TAACTGCA — higher, -0.0504
- CTACAATA — higher, 0.0926
- AAGTGAGA — higher, 0.0104
- TAGCGGGA — higher, -0.174
- GCTACAAC — higher, -0.168
- ATTCAACC — higher, 0.0516
- TAAGTGGA — higher, -0.00503
- AGTCGCTG — higher, -0.0587
- CCGGAAGC — higher, -0.0285
- ATCTCCAA — higher, 0.0293
- ACAGTAAG — higher, -0.0118
- GTCCCTCA — higher, 0.0279
- CGGTCTCA — higher, -0.0128
- GTCAAGCA — higher, -0.198
- AGTTAAAT — higher, 0.0476
- GGGCATGA — higher, -0.269
- CTATATTC — higher, 0.0379
- ACGAGGCT — higher, 0.0912
- CTAATGGA — higher, 0.0103
- CCCCGATC — higher, -0.221
- AACTGGTA — higher, -0.176
- TTTCAAAA — higher, 0.206
- TAGGGGGA — higher, -0.278
- GTTCCGAA — higher, 0.286
- AGTACACT — higher, -0.0325
- TCAGCAGA — higher, 0.0438
- GTGTTTTA — higher, 0.0163
- CCTCCGGA — higher, 0.102
- AACGAGGT — higher, -0.0403
- AACACCAG — higher, -0.113
- CCGAGCAG — higher, 0.065
- ATTAACCA — higher, 0.0342
- AGGGACTC — higher, -0.223
- AGGGCGGA — higher, -0.176
- ACCAAGTG — higher, -0.216
- ATGTCGTA — higher, 0.395
- AGAACCTG — higher, -0.122
- GATTAAAC — higher, 0.0815
